# Measurements from the supplement of paper PMC10338343.
# ± gives the standard deviation. The entries are a selection whose mix differs from that of the whole data set.
# System: MIWI (PIWIL1) piRISC loaded with piRNA #1 (30 nt)
# Experiment: pre-steady-state target cleavage rate (min^-1); MIWI and MILI are mouse PIWI proteins and EfPiwi is from a freshwater sponge; tags in brackets are library labels; higher = faster piRNA-guided slicing of the target
# Conditions: guide: piRNA #1 5'p-UGAGGUAGUAGGUUGUAUAGUAUCCAGAGG; auxiliary factor: 500 nM mouse GTSF1
# How it was run: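 Active affinity-purified piRISC (1 nM) loaded with one synthetic guide was mixed with a transcribed, DNA-blocked target RNA library (0.1 nM), with or without 500 nM GTSF1 partner protein, in HEPES–potassium acetate buffer at 33 °C for 0–8 or 0–960 min. Uncleaved targets were sequenced, normalised to depth and to weakly complementary targets, and pooled across three trials, with k3 capped at 0.0001 min^-1. The pre-steady-state cleavage rate was determined with a burst-and-steady-state fit.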
row,Sequence,pre-steady-state target cleavage rate
1,GGAGAGGAUACUAUACUACGUACUACCUCA,0.12 ± 0.019
2,GGACUGGAUACUAUACAACCAUCUACCUCA,0.0244 ± 0.0045
3,GGAGACCAUACUAUAGAUCCUACUACCUCA,0.501 ± 0.051
4,CCUCUGGAUACUAUAGUACCUACUACCUCA,1.51 ± 0.12
5,GGAGACCUAUCUAUACAACCAACUACCUCA,0.0118 ± 0.0025
6,GGUCUGGAUUGUAUACAACCUACUACCUCA,0.795 ± 0.051
7,GGAGUGGAUACUAUACAACCAACUACCUGA,0.0492 ± 0.0085
8,GGAGACCUUACUAUACAACCUACUACAUCA,1.48 ± 0.084
9,GGACUGGAUACUAUACAACCUACUACCUAA,0.609 ± 0.058
10,GGACUGGUAUCUAUACAACCUACUACCUCA,1.33 ± 0.12
11,CCUCUGGAUACUAUACAACCUACAUACCUCA,1.91 ± 0.13
12,CCUCUGGAUACUAUACAACUCUACUACCUCA,0.0034 ± 0.0033
13,GGAGAGGAUAGUAUUCAACCUACUACCUCA,0.19 ± 0.031
14,GGAGAGGAAACUAUACAACCUACUACCUCA,1.36 ± 0.08
15,GGAGACGAAACUAAACAACCUACUACCUCA,0.626 ± 0.069
16,GGAGUGGAUACUAUACAACCUACGUACCUCA,0.712 ± 0.076
